To fix the notation:
B1: LINE1-mini (parent)
chain: GGCAGAGCUCAACACAGCGUGGCAAAGUGGCUGUGGCUAGACUGCC

The source gives no read counts; variants with many changes may rest on few reads.

Variants of B1 are the subject of the data set. In words: self-cleavage, relative activity (ratio to wild type); higher = more cleavage; in vitro, sequencing; the parent is a self-cleaving ribozyme.
On to GGCAGAGCUCAACACAGCUUGCCAAAGAGGCUGUGGCUAGACUGCC, for which the self-cleavage amounted to 0.38.
As for GGCAGAGCUCAACACAGCUUGGCAAAGUGCAUGUGGCUAGACUGCU, the self-cleavage stood at 0.21.
For GGCAGAGCUCAACACAGCUUGGCAAAGUGGCUCUGGCUUGACUGCC the value was 0.02; for GGCAGAGCUCAACACAGCUUUGCAAAGUGGCUGUGGCUAGAAUGCC, 0.22; for GGCAGAGCUCAACACAGCUUCGCAAAGUGGCUGUUGCUAGACUGCC, 0.02.
As for GGCAGAGCUCAACACAGCUUCGCAAAGUGGCUGUCGCUAGACUGCC, the figure is 0.11; as for GGCAGAGCUCAACACAGCUUGGCAAAGUUGCUGUCGCUAGACUGCC, 0.09.
For GGCAGAGCUCAACACAGCUUGGCAAACUGGCUGUGGCUACACUGCU the value was 0.01.
As to GGCAGAGCUCAACACAGCUUGGCAAAGUGCCAGUGGCUAGACUGCC, the self-cleavage is 0.02.
For GGCAGAGCUCAACACAGCUUGGCAAAAUGGCUGUGGCUAGUCUGCC the value was 0.21; for GGCAGAGCUCAACACAGCUUGGCAAAGUAGCUGUGGCUAGACUGCA, 0.34.
For GGCAGAGCUCAACACAGCUUGGCAAAGUGCCAGUUGCUAGACAGCC the value was 0.02.
For GGCAGAGCUCAACACAGCUUUGCAAAGUGGCUGUGGGUAGACAGCC the value was 0.01; for GGCAGAGCUCAACACAGCUUGGCAAAGUGGCUGUCGGUAGACUGCC, 0.02.
For GGCAGAGCUCAACACAGCUUGCCAAAGUGGCUAUGGCUAGACUGCC, the self-cleavage worked out at 0.23.
For GGCAGAGCUCAACACAGCUUGUCAUCGUGGCUGUGGUUAGUCUGCC the value was 0.05; for GGCAGAGCUCAACACAGCUUGGCAAAUUGGCUGUGGCUAGAGUGCC, 0; for GGCAGAGCUCAACACAGCUUGGCAAAGUCGCUGUGGCCAGACUGCC, 0.13.
As for GGCAGAGCUCAACACAGCUUGGCAAAGUAGCUGUGGUUAGACUUCC, the self-cleavage came to 0.02.
For the variant GGCAGAGCUCAACACAGCUUAGCAAAGUAGCUGCGGCUAGAAUGCC, the self-cleavage turned out to be 0.06.
As for GGCAGAGCUCAACACAGCUUGGCAAAGUGGCUGUGUCCAGACUGCC, the figure is 0; as for GGCAGAGCUCAACACAGCUUGGCAAAGUGGCUUUGGCCUGACUGCU, 0.07.
As for GGCAGAGCUCAACACAGCUUGGCAAAGUUGCUGUGGCUAGACUUCC, the figure is 0.18; as for GGCAGAGCUCAACACAGCUUGGCAAAGUUGCUGUGGCUAGACUCCC, 0.09.
As for GGCAGAGCUCAACACAGCUUGGCAAAAUGACUGUGGCUAGACUGUC, the figure is 0.42; as for GGCAGAGCUCAACACAGCUUGGCAAAGUUGCUGUUGCGAGACUGCC, 0.04; as for GGCAGAGCUCAACACAGCUUGGCAAAGUUGCUGUGGCUAGACUGCG, 0.46.
On to GGCAGAGCUCAACACAGCUUGGCAAAGUCACUGUCGCUAGACUGCC, for which the self-cleavage stood at 0.04.
For GGCAGAGCUCAACACAGCUUGGCAAAGUGACUGUGGCUAGUCUGCC the value was 0.28; for GGCAGAGCUCAACACAGCUUGACAAAGUUGCUGUGGCUAGACUACC, 0.2.
For GGCAGAGCUCAACACAGCUUGGCAAAGUGCCUGUGGCUAGACUUCC the value was 0.05; for GGCAGAGCUCAACACAGCUUUGUAAAGUGGCUGUGGCUAGACUGCC, 0.4; for GGCAGAGCUCAACACAGCUUGGCAAAGUAGCUGUGACUAGACUGCC, 0.3.
As for GGCAGAGCUCAACACAGCUUGAGAAAGUGGCUGUGGCUAGACUGCC, the figure is 0.12; as for GGCAGAGCUCAACACAGCUUGGCAAAGUGGCUUUGGCUAGACUGCU, 0.01.
Consider GGCAGAGCUCAACACAGCUUGCCAAUAUGGGUGUGGCUAGACUGCC, for which the self-cleavage came to 0.13.
For GGCAGAGCUCAACACAGCUUGGCAAAAUGACUGUGGCCAGACUGCC the value was 0.12; for GGCAGAGCUCAACACAGCUUGGCAAAGUGUCUUUGGAUAGACUGCC, 0.05.
As for GGCAGAGCUCAACACAGCUUUGCAAAAUGGCUGUGGCUAUACUGCC, the figure is 0.13.
As to GGCAGAGCUCAACACAGCUUGCCAAAGUGGCUGUGGCUAGUCUGCC, the self-cleavage was found to be 0.72.
For the variant GGCAGAGCUCAACACAGCUUGGCAAAUUGGCUGUGGCUAGAAUACC, the self-cleavage is 0.03.
For GGCAGAGCUCAACACAGCUUGGCAAACUGGCAGUGGCUAGACUGCC the value was 0.16.
As for GGCAGAGCUCAACACAGCUUGCAAAAGUGGCUGUGGCUAGACUGCC, the figure is 0.28.
As to GGCAGAGCUCAACACAGCUUGGCAAAGUGUCUGUGGCUAGACUGCA, the self-cleavage is 1.14.
For GGCAGAGCUCAACACAGCUUGGCAAAGUCGCUGUGACUAGACUGCC the value was 0.11; for GGCAGAGCUCAACACAGCUUGACAAAGUGGCUGUUGCUAGACUGCC, 0.1; for GGCAGAGCUCAACACAGCUUGUCAGAGAGGCUGUGGCUAGUCUGCC, 0.43.
Take GGCAGAGCUCAACACAGCUUGGCAAAGUGCGUGUGGCUAAACUGCC: the self-cleavage worked out at 0.05.
For GGCAGAGCUCAACACAGCUUUGCAAAGUGGCUGUGGUUAGACUGCC the value was 0.02; for GGCAGAGCUCAACACAGCUUGACAAAGUGUCUGUGGGUAGACUGCC, 0.09; for GGCAGAGCUCAACACAGCUUGGCAAAGUAGCUGGGGCUAGACUGCC, 0.15.
Consider GGCAGAGCUCAACACAGCUUGGCAAAGUAGCAGUGGUUAGACUGCG, for which the self-cleavage was determined as 0.04.
Turning to GGCAGAGCUCAACACAGCUUGGCAAAGUAGCUGUGAUUAGACUGCC, the self-cleavage was 0.01.
For GGCAGAGCUCAACACAGCUUGGCAAAGUCGCUGUGGCUAGACUACC the value was 0.18.
For GGCAGAGCUCAACACAGCUUGGCAAAGUCGCUGUGGCUAGACUGUG the value was 1.24; for GGCAGAGCUCAACACAGCUUGACAAAGUGGCUGAGGCUAGACUGCC, 0.18.

Source of the values: the RNAGym collection of RNA variant scans (doi:10.7554/elife.90254).
